Reference: patent US20250171556A1, “MULTISPECIFIC ANTIBODIES FOR TREATING CD47-ASSOCIATED DISEASES” (Virtuoso BINco, Inc., priority 2021, published 2025)

Columns and labels:
human EpCAM = biological target: T1, human EpCAM (Homo sapiens, UniProt P16422); experiment: ELISA binding to recombinant human EpCAM; settings: plate coated with 1 μg/ml recombinant human EpCAM
T1 sequence (P16422 24-314): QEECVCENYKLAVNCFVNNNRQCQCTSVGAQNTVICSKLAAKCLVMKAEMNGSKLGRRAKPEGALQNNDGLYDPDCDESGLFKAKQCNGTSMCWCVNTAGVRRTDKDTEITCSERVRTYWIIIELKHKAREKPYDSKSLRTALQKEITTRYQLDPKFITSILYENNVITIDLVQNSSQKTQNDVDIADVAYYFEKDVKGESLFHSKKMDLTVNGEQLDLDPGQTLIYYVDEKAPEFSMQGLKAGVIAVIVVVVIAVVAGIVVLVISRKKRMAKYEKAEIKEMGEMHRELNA
Description: (§1) A 96-well plate was coated overnight at 4° C. with 1 μg/ml recombinant human CD47 or human EpCAM. After washing 3 times, the plate was blocked with 300 μl 1% BSA in PBST at 37° C. for 1 hour. Serially diluted antibodies were added and incubated at 37° C. for 1 hour. The plate was then washed 4 times with PBST and incubated with 1:5000 diluted peroxidase labeled goat anti-human IgG (Fab specific) secondary antibody (Sigma, Cat #A0293) for 1 hour at 37° C. The plate was washed again 4 times with PBST, incubated with 3,3′,5,5′-tetramethylbenzidine (TMB) substrate for 15 min at room temperature, terminated with 1N HCl, and then read at 450 nm.
ELISA assay was performed as described in EXAMPLE 3. The bindings of CD47×EpCAM_v9, v10 and v11 on human EpCAM and human CD47 were tested.

human CD47 = human CD47 (Homo sapiens, UniProt Q08722); experiment: ELISA binding to recombinant human CD47; settings: plate coated with 1 μg/ml recombinant human CD47
Description: as §1
as §1, with “μg/mL” for “μg/ml”, “EGFR.” for “EpCAM.”, “μL” for “μl”
ELISA assay was performed as described in EXAMPLE 3. […]

- ELISA binding on human EpCAM recombinant protein (human EpCAM): robustly
- ELISA binding on human CD47 recombinant protein (human CD47): robustly
B1: v9: three-chain anti-CD47 × anti-EpCAM bispecific antibody; SEQ ID NOs 503, 504, 505 (protein)
chain 1: EVQLVESGGGLVQPGGSLRLSCAASGFTFNTYAMHWVRQAPGKGLEWVARIRSKTYNYATFYADSVKGRFTISRDDSKNTLYLQMNSLRAEDTAVYYCVTGSSYAMDYWGQGTTVTVSS[letters of human IgG1 constant region with changes left out]
chain 2: DIQLTQSPSSLSASVGDRVTFTCRASQSIGTSLHWYQQKPGKAPKLLIKYASESISGIPSRFSGSGSGTDFTLTISSVQPEDFATYYCQQSNSWPYTFGQGTKLEIKRTVAAPSVFIFPPSDEQLKSGTASVVCLLNNFYPREAKVQWKVDNALQSGNSQESVTEQDSKDSTYSLSSTLTLSKADYEKHKVYACEVTHQGLSSPVTKSFNRGEC
chain 3: EVQLLESGGGLVQPGGSLRLSCAASGFTFSNFAMSWVRQAPGKGLEWVSTISASGGRTFYADSVKGRFTISRDNSKNTLYLQMNSLRAEDTAVYYCAKEGSFGEGVDPWGQGTLVTVSSGGGGSGGGGSGGGGSSYELTQPPSVSVSPGQTARITCSGDALPKKYAYWYQQKSGQAPVLVIYEDNKRPSGIPERFSGSSSGTMATLTISGAQVEDEADYYCYSTDISGNHWVFGGGTKLTVLGGSGGSGGA[letters of human IgG1 Fc with changes left out]
